Experimental data from PMC12136788.
Some of the results follow.

B1: chr11:62752106:62752207:-|CDS|ENSG00000185670|msi1|total|mutant (ssRNA)
RNA: GGGAGUUCUACAGUCCGACGAUCGGCUCACAAUGAGGACCUGGCCAAACGCAGCAAACCAGAUCCAGAAGUGGGACCCCUUCCCGGGGUGCAGCCUCUCCCUGGCUCCCCAACAGCAGACAGACAGAGCAGCAGUGGUGGAGGCAACAGAGGAUUGAGCAUCA
B2: ENSG00000154556:stop:overlap|stop_codon|ENSG00000154556|stop_codon|NA|stop_codon (ssRNA)
RNA: GGGAGUUCUACAGUCCGACGAUCCUUCUUCCCCAUCAAGAGCAAAAGUUACUCAGGGCUCAACGGCAACCCCUCCAGUGAGUUAGAUUACUGUAGCACUUACAGACAGCACUUGGAUGUCCCUCGGGACUCACCAAGAGCCAUCAACAGAGGAUUGAGCAUCA
B3: chr14:103559255:103559356:-|3pUTR|ENSG00000166170|msi1|FALSE|unique (ssRNA)
RNA: GGGAGUUCUACAGUCCGACGAUCGCUUAACGGGGUGGGGUUUUUUUGUUUGUUCAGACAGUCUGUUCUUUUGUAAACAUUUUUAGUUGGAAAAACAGCAUCUGCAUUUUCCCCAUCCUCUACGUUUUAGAGAGGAAUCUUGUUCAACAGAGGAUUGAGCAUCA
B4: ENSG00000164751:stop:overlap|stop_codon|ENSG00000164751|stop_codon|NA|stop_codon (ssRNA)
RNA: GGGAGUUCUACAGUCCGACGAUCAAGUACACAGUCUGCAGCCACUGAAAUCAGGAAUCGAGAUGUCAGAAGUAAAUGCUCUUUAGAAACUAAAAUUGCUUCCUUUGAGGAAAAAAAUGCACCGUGUUUAAAUUCUUAAUAUUACAACAGAGGAUUGAGCAUCA
B5: chr10:47502154:47503543:-|CDS|ENSG00000204172|control|control|control (ssRNA)
RNA: GGGAGUUCUACAGUCCGACGAUCGGAGCUGGAUGACUGGCCAGUUGAGCUCAGGAAGGUUAUGUCAUCUAUUGGCAAUGAGCUAGCCAACAGCAUCUGGGAAGGGAGCAGCCAGGGGCAGACAAAACCCUCAAUAAAGUCCACCAACAGAGGAUUGAGCAUCA
B6: chr12:52702891:52703434:-|CDS|ENSG00000189182|control|control|control (ssRNA)
RNA: GGGAGUUCUACAGUCCGACGAUCCUUUGGUCCUUAUUGUCCUCCUGGGGGCAUCCAAGAGGUGACCAUUAACCAGAGCCUCCUAGAGCCACUUCACCUGGAGGUGGACCCUGAAAUUCAGAGGAUCAAGACCCAGGAGCGGGACAACAGAGGAUUGAGCAUCA
B7: chr19:6380113:6380214:-|3pUTR|ENSG00000125651|msi1|FALSE|unique (ssRNA)
RNA: GGGAGUUCUACAGUCCGACGAUCACUUCAGGCUCUCAGUGACCCUUCGACAUCCUGCUUGCUCCCUGACUCCCAGGGCCCCGUAGUUAGCAAUUCUGGAAAAGUUAAGCCAUCUCCUCCUCUGGCCCUUCCUUCUGGAAUCUUCAACAGAGGAUUGAGCAUCA
B8: chr5:159158860:159158961:-|CDS|ENSG00000145860|msi1|total|mutant (ssRNA)
RNA: GGGAGUUCUACAGUCCGACGAUCCCAGGAGACCUGCCCUCUGUGCCACUGCCAUCUGAAAAACUCCUCCCAGCUUCCAGGAUCCGGAACUGAGCCAGUUCUACAGCCUCAUGCUGGAGCUGAGCAAAACGUCAUGUUUCAGGACAACAGAGGAUUGAGCAUCA
B9: chr3:89481969:89482070:+|3pUTR|ENSG00000044524|msi1|FALSE|unique (ssRNA)
RNA: GGGAGUUCUACAGUCCGACGAUCAUAUGUGUUUACUUUAAACUUGUCUUUUCAAAAUAUUACUCAGUUUAUGUUGUACAAUGUAGAUGGCCUCUUACUAAUGUAAAAUGAUUUGUAGUGGAAACAUUUAUAUUUUUAUAAUAACAACAGAGGAUUGAGCAUCA
B10: chr12:89590234:89590335:-|3pUTR|ENSG00000070961|msi1|total|mutant (ssRNA)
RNA: GGGAGUUCUACAGUCCGACGAUCUUUGCCUACAAUUUACCUUGUUAAAUAUUGCCGAUAAAUUGCUAAUACUAACCGCCAAACCGAUAACACUAAUGCUUUGUUUAAAAAAACGAAAAAAACAAAACAAAACAAAAAAACAUGCAACAGAGGAUUGAGCAUCA
B11: chr11:7467339:7467451:+|3pUTR|ENSG00000170743|unk|total|mutant (ssRNA)
RNA: GGGAGUUCUACAGUCCGACGAUCCCAAGAGAAUACCAAGACAAGCAGGCUGUUCCCUGGAAAAAAUCUAAUGCAAGGAGGGCCCGUUCACAGCAAAUUCACUGCCUCCUCCCAUGCACGUGGCCGAGAGUACCAGUAUCAACACAACAGAGGAUUGAGCAUCA
B12: chr1:154207159:154207278:-|3pUTR|ENSG00000143612|msi1_unk|total|mutant (ssRNA)
RNA: GGGAGUUCUACAGUCCGACGAUCUUCCCCAACCCUUCCUUAUGAGCAUUUUCCGAACAUUGGCUAAGACUAUUUUCCCCCAGCCGCGCUUUUUUCUGGAUUUGCAUUCAGGUGUUAUUCUUAAUGUUUCUGUCAAAGCUUCUUCAACAGAGGAUUGAGCAUCA
B13: chrX:30854639:30854752:-|CDS|ENSG00000157625|unk|total|mutant (ssRNA)
RNA: GGGAGUUCUACAGUCCGACGAUCUUCAGCUCUCCACAGCAUCAAGUGCAACCUUCCCAGUUGGGCCACAUCUUUAUGCCACCCCGUCCUUCAACUACUCCACCCCAUCCAUAUCAACAAGGACCUCCCCGCUAUCAGAAACAGCAACAGAGGAUUGAGCAUCA
B14: ENSG00000139116:stop:overlap|stop_codon|ENSG00000139116|stop_codon|NA|stop_codon (ssRNA)
RNA: GGGAGUUCUACAGUCCGACGAUCAUGCUUUACUAGGCCAUGCUUUACAAGAUCUAGAUAGCGUACCAUUAGGUAAGUAUGUUUAGCUUUCUGUGUAUCCUACAGCUGCAUGAAUUACUAAUUGUUCAUGUACACUAAUUGUGGCAACAGAGGAUUGAGCAUCA

What follows are binders tested against MSI1 full-length (mouse, UniProt Q61474 1-362) (assay: nsRBNS (natural sequence RNA bind-n-seq); RBNS binding buffer (assumed for nsRBNS): 25 mM Tris pH 7.5, 150 mM KCl, 3 mM MgCl2, 0.01% Triton X-100, 500 ug/ml BSA, 20 U/ml SUPERase-In, 4 C; UNK is unkempt and MSI1 is Musashi-1; names of the RNAs are library labels; protein concentration not given here; high values mean tight binding).
UniProt Q61474, sequence (Q61474 whole entry): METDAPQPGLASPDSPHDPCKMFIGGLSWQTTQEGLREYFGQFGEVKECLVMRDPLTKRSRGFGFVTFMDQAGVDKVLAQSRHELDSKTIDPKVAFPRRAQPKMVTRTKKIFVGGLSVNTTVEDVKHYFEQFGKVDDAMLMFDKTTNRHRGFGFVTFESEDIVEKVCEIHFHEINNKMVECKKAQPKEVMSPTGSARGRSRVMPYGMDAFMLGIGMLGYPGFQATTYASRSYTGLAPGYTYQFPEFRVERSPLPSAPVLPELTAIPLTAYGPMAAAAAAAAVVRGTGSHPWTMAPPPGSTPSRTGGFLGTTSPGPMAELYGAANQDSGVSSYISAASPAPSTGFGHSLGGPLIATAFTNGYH

| Binder | binding signal |
| --- | --- |
| B1 | 0.516 enrichment R |
| B2 | 0.595 enrichment R |
| B3 | 1 enrichment R |
| B4 | 0.457 enrichment R |
| B5 | 0.422 enrichment R |
| B6 | 0.357 enrichment R |
| B7 | 1.14 enrichment R |
| B8 | 0.437 enrichment R |
| B9 | 3.27 enrichment R |
| B10 | 0.964 enrichment R |
| B11 | 0.435 enrichment R |
| B12 | 0.537 enrichment R |
| B13 | 0.986 enrichment R |
| B14 | 0.422 enrichment R |
